In PubChem BioAssay AID720542 (National Center for Advancing Translational Sciences (NCATS), 2013):
Among all 360,000 compounds or so, about 740 (0.21%) were called active. The inconclusive results got no clear call from the source; some entries with a clear call stand among them for comparison. Calls follow the shape of the dose curve; as a rule, active = well fitted inhibition curve with a large enough effect; inconclusive = small, poorly fitted or top-dose-only effect; inactive = no such curve, though single readings can be large or run the other way. Potencies of inconclusive entries are left out as doubtful fits.

tested on: Plasmodium falciparum AMA1 (3D7) - RON2 peptide interaction; assay: qHTS for Inhibitors of AMA1-RON; Towards Development of Antimalarial Drug Lead: Primary Screen; details: AlphaScreen AMA1-biotinylated RON2 peptide binding; activity change, negative = inhibition: at 58.2 µM (top of the series) unless noted; also: nearly all actives have a fitted effect of over 45% in size;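 as to activity change, negative = inhibition: 0% = vehicle wells and -100% = peptide control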
How it was run: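 AMA1 (3D7) with his tag at 25 nM final met compounds first, then biotinylated RON2 peptide at 25 nM; detection used donor plus acceptor beads, 10 µg/mL apiece, read by AlphaScreen after 30 min at room temperature.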
Potency is read from the fitted curve at half-maximal effect; tags tell the direction and shape of the fitted curve.

| Compound | activity change, negative = inhibition | Potency |
| --- | --- | --- |
| Cc1ccccc1-c1nc2cc(Cl)ccc2c(=O)o1 | inactive: 5.9% |  |
| CC(/C=N/NC(=O)Cn1cnc2c1c(=O)n(C)c(=O)n2C)=C\c1ccco1 | inactive: 14.5% |  |
| COc1cc(OC)cc(C(=O)Nc2nc(CC(=O)NCc3ccccc3OC)cs2)c1 |  | inconclusive [inhibitor, single point] |
| NS(=O)(=O)c1ccc(CCNS(=O)(=O)c2ccc(Cl)nc2)cc1 | inactive: -9.26% |  |
| CCOc1ccccc1N(CC(=O)Nc1ccc2c(c1)OCCO2)S(C)(=O)=O | inactive: -8.87% |  |
| Oc1ccc(/C=N/N2CCOCC2)c(O)c1O |  | inconclusive [inhibitor, partial curve] |
| CN(C)CCCN1c2ccccc2Sc2ccc(Cl)cc21 |  | inconclusive [inhibitor, single point] |
| Cc1cccc(N=N/C(=C\O)C(=O)c2cccs2)c1 |  | inconclusive [inhibitor, single point] |
| O=C(C1CCN(S(=O)(=O)c2ccc(-n3cnnn3)cc2)CC1)N1CCN(c2ccccc2)CC1 |  | inconclusive [inhibitor, partial curve, poor fit] |
| CN[C@H]1C[C@H]2c3[nH]c4ccc(-c5ccc(OC)cc5)cc4c3CCN2C(=O)[C@H]1[C@H](C)O |  | inconclusive [inhibitor, partial curve] |
| CC(=O)CC(C)(C)NC(C)=S | inactive: 9.85% |  |
| O=C1C=C(N2CC2)c2ccccc2C1=O |  | inconclusive [inhibitor, partial curve] |
| Cc1cc(OCCCN2CCN(Cc3ccccc3)CC2)ccc1[N+](=O)[O-] |  | inconclusive [inhibitor, single point] |
| COc1ccc(N2c3ccccc3CN(Cc3ccccc3)CC2Cc2cc(OC)c(OC)c(OC)c2)cc1 (stereo not given) |  | active: 11.2 µM |
| CN(C)Cc1cc(O)c(CN(C)C)cc1O |  | inconclusive [inhibitor, partial curve] |
| O=C1CC(c2ccc(O)c(O)c2)Oc2c1ccc(O)c2O (stereo not given) |  | inconclusive [inhibitor, full curve] |
| Cn1c(Cc2csc(N)n2)nnc1SCC(=O)NCc1ccccc1 |  | inconclusive [inhibitor, partial curve] |
| COc1ccc(NCc2ccccc2[N+](=O)[O-])cc1OC | inactive: -27.9% |  |
| c1ccc(CCSc2nccn2-c2ccccc2)cc1 |  | inconclusive [inhibitor, partial curve] |
| O=C(/C=C/c1cnc2ccccc2n1)NC12CC3CC(CC(C3)C1)C2 |  | inconclusive [inhibitor, partial curve, poor fit] |
| CCN(CC)S(=O)(=O)c1cc([N+](=O)[O-])ccc1NNC(=O)Nc1ccc(Cl)c(Cl)c1 | inactive: -7.07% |  |
| O=C1C2C3C=CC(C4CC34)C2C(=O)N1/N=C/c1ccc(-c2ccc(Cl)cc2[N+](=O)[O-])o1 (stereo not given) |  | inconclusive [inhibitor, single point] |
| Cc1ccc2c(CN3CCN(Cc4ccccc4)CC3)cc(=O)oc2c1C | inconclusive: -14.7% [inhibitor] |  |

| Compound | activity change, negative = inhibition | Potency |
| --- | --- | --- |
| Cc1cccc(-n2nc3c(c2NC(=O)c2ccco2)CSC3)c1C | inactive: -11.4% |  |
| CC(=O)c1cccc(-c2ccnc3c2CC(C(=O)Nc2cccc(N(C)C)c2)O3)c1 (stereo not given) |  | inconclusive [inhibitor, partial curve] |
| COC(=O)c1sc2ncccc2c1OCc1ccc(Cl)cc1Cl |  | inconclusive [inhibitor, partial curve, poor fit] |
| Cn1c(=O)c2[nH]c(CN3CCCCC3)nc2n(C)c1=O | inactive: 2.36% |  |
| CCOc1ncccc1C(=O)OCC(=O)Nc1c(C)cccc1C |  | inconclusive [inhibitor, full curve, poor fit] |
| COC(=O)c1ccc(COC(=O)CNS(=O)(=O)c2ccc(C)cc2)cc1 | inactive: 4.23% |  |
| CCOc1ccc(CCNC(=O)c2cc(-c3ccccc3)c(N3CCOCC3)s2)cc1OCC |  | inconclusive [inhibitor, single point] |
| O=C(Nc1c2c(nn1-c1ccc(Cl)cc1)CS(=O)(=O)C2)C1CC1 | inactive: -3.95% |  |
| Cc1c(C(=O)NCc2ccoc2)oc2ccc3c(c12)C(=O)CC(C)(C)O3 |  | inconclusive [inhibitor, single point] |
| c1coc(-c2nnc3sc(Cc4cccs4)nn23)c1 |  | inconclusive [inhibitor, partial curve] |
| CCOC(=O)C(C)Oc1cccc2c(=O)n(CC(=O)Nc3cccc(OC)c3)ccc12 (stereo not given) | inactive: -4.76% |  |
| O=[N+]([O-])c1cc(CN2CCC(O)CC2)ccc1Cl |  | inconclusive [inhibitor, partial curve] |
| Cn1c2ccccc2c(=O)c2c(=O)n(-c3ccc(F)cc3)c(-c3cccs3)nc21 |  | inconclusive [inhibitor, partial curve] |
| C=CCNC(=O)C1=NN(c2c(F)c(F)cc(F)c2F)C(=O)CC1 |  | inconclusive [inhibitor, single point] |
| CNc1cc(-n2nc(C)cc2-c2ccccc2)ncn1 |  | inconclusive [inhibitor, partial curve] |
| COc1ccc(Cl)cc1NC(=O)C(C)N1CCc2ccccc21 (stereo not given) |  | inconclusive [inhibitor, full curve] |
| COc1cccc(N=Nc2c(C)[nH]n(-c3ccccc3)c2=O)c1 |  | inconclusive [inhibitor, full curve] |
| O=C(NCc1ccc(Cl)cc1)c1cc2ccccc2oc1=O | inactive: 4.06% |  |
| Cc1c(C#N)c(O)n(CCO)c(=O)c1N=Nc1ccc2c(c1)COC2=O |  | inconclusive [inhibitor, partial curve] |
| O=C(C1CCCN(Cc2cccc(Cl)c2)C1)N1CCCCC1 (stereo not given) |  | inconclusive [inhibitor, single point] |
| O=C1NCCN1C(=O)C12CC3CC(CC(C3)C1)C2 |  | inconclusive [inhibitor, partial curve] |
| Cc1ccc(NCc2ccccc2OCc2ccccc2F)cc1 |  | inconclusive [inhibitor, partial curve] |
